The list shows a part of the results, in another mix than the full data.
These compounds were tested on MAP4K5. Conditions: concentration: 1 μM,replicates: in singlicate; n = 1.
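Also: KINOMEscan kinase panel screen.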

Point of comparison: `O=C1NC(=O)C(c2ccc(Cl)cc2)=C1Nc1cccc(O)c1` [SB-333613], “%Inh” value 27%. Against it:
- O=C1NC(=O)C(c2ccc(Cl)cc2)=C1Nc1cccc(C(=O)O)c1 [SB-360737] — lower, 0%
- COc1cccc(C2=C(Nc3ccc(SC)cc3)C(=O)NC2=O)c1 [SB-331032] — lower, 0%
- O=C1NC(=O)C(c2ccccc2Cl)=C1Nc1cccc(C(=O)O)c1 [SB-390526] — lower, 0%
- CS(=O)(=O)c1ccccc1-c1nc(-c2ccc(F)cc2)c(-c2ccncc2)[nH]1 [SB-213663] — lower, 1%
- Cc1cc(C)cc(Oc2nccc(-c3c(-c4ccc(F)cc4)ncn3C3CCNCC3)n2)c1.O=C(O)C(F)(F)F.O=C(O)C(F)(F)F.O=C(O)C(F)(F)F [SB-284851] — higher, 36%
- O=C1NC(=O)C(c2ccccc2Cl)=C1Nc1ccccc1 [SB-376715] — lower, 9%
- COc1ccc(C2=C(Nc3cccc(Cl)c3)C(=O)NC2=O)cc1 [SB-326892] — lower, 7%
- O=C(O)c1ccc(-c2nc(-c3ccc(F)cc3)c(-c3ccncc3)[nH]2)cc1 [SB-202620] — lower, 12%
- CSc1ccc(NC2=C(c3cccc(Cl)c3)C(=O)NC2=O)cc1 [SB-341528] — lower, 0%
- Cc1ccc(C)c(Oc2nccc(-c3c(-c4ccc(F)cc4)ncn3C3CCNCC3)n2)c1.O=C(O)C(F)(F)F.O=C(O)C(F)(F)F.O=C(O)C(F)(F)F [SB-284852] — higher, 100%
- O=C1NC(=O)c2c1c(-c1ccccc1)cc1[nH]c3ccc(O)cc3c21 — higher, 55%
- O=C1NC(=O)C(c2ccc(Cl)cc2)=C1Nc1ccc(O)c(Cl)c1 [SB-405367] — lower, 0%
- O=C1NC(=O)C(c2ccccc2)=C1Nc1cc(Cl)c(O)c(Cl)c1 [SB-390530] — lower, 10%
- O=C1NC(=O)C(c2ccc(Cl)cc2)=C1Nc1ccccc1 [SB-317661] — lower, 0%
- O=C1NC(=O)C(c2ccccc2)=C1Nc1ccc(Cl)c(C(=O)O)c1 [SB-390532] — lower, 0%

Each compound was assayed on MAPKAPK2. Conditions: concentration: 1 μM,replicates: in singlicate; n = 1.

Point of comparison: `O=C1NC(=O)C(c2ccccc2Cl)=C1Nc1cccc(C(=O)O)c1` [SB-390526], “%Inh” value 36%. Against it:
- O=C1NC(=O)C(c2ccc(Cl)cc2)=C1Nc1cccc(C(=O)O)c1 [SB-360737] — lower, 10%
- COc1cccc(C2=C(Nc3ccc(SC)cc3)C(=O)NC2=O)c1 [SB-331032] — lower, 0%
- O=C1NC(=O)C(c2ccc(Cl)cc2)=C1Nc1cccc(O)c1 [SB-333613] — lower, 2%
- CS(=O)(=O)c1ccccc1-c1nc(-c2ccc(F)cc2)c(-c2ccncc2)[nH]1 [SB-213663] — lower, 0%
- Cc1cc(C)cc(Oc2nccc(-c3c(-c4ccc(F)cc4)ncn3C3CCNCC3)n2)c1.O=C(O)C(F)(F)F.O=C(O)C(F)(F)F.O=C(O)C(F)(F)F [SB-284851] — lower, 5%
- O=C1NC(=O)C(c2ccccc2Cl)=C1Nc1ccccc1 [SB-376715] — lower, 8%
- COc1ccc(C2=C(Nc3cccc(Cl)c3)C(=O)NC2=O)cc1 [SB-326892] — lower, 0%
- O=C(O)c1ccc(-c2nc(-c3ccc(F)cc3)c(-c3ccncc3)[nH]2)cc1 [SB-202620] — lower, 15%
- CSc1ccc(NC2=C(c3cccc(Cl)c3)C(=O)NC2=O)cc1 [SB-341528] — lower, 12%
- Cc1ccc(C)c(Oc2nccc(-c3c(-c4ccc(F)cc4)ncn3C3CCNCC3)n2)c1.O=C(O)C(F)(F)F.O=C(O)C(F)(F)F.O=C(O)C(F)(F)F [SB-284852] — lower, 0%
- O=C1NC(=O)c2c1c(-c1ccccc1)cc1[nH]c3ccc(O)cc3c21 — lower, 0%
- O=C1NC(=O)C(c2ccc(Cl)cc2)=C1Nc1ccc(O)c(Cl)c1 [SB-405367] — lower, 12%
- O=C1NC(=O)C(c2ccccc2)=C1Nc1cc(Cl)c(O)c(Cl)c1 [SB-390530] — lower, 1%
- O=C1NC(=O)C(c2ccc(Cl)cc2)=C1Nc1ccccc1 [SB-317661] — lower, 0%
- O=C1NC(=O)C(c2ccccc2)=C1Nc1ccc(Cl)c(C(=O)O)c1 [SB-390532] — lower, 0%

— PMC5540273 (PLoS ONE, 2017)
